Test results: the supplement of paper PMC4604168 (melanoma cell lines)
The list shows a part of the results. Repeats are few or missing, and single values can be far off.

How the values were obtained:
Assay in all cases: cell count relative to DMSO control; melanoma cells; higher = more viable cells
Conditions in all cases: library dose: low library concentration; 72 h
WM115 = tested on: WM115
WM1716 = tested on: WM1716
WM1745 = tested on: WM1745
WM3526 = tested on: WM3526
WM3619 = tested on: WM3619
WM451Lu = tested on: WM451Lu
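Note: cell number obtained by counting DAPI-stained nuclei in high-throughput microscope images with image analysis software, screen run in 1,536-well plates.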

Cc1cc(Nc2cc(N3CCN(C)CC3)nc(Sc3ccc(NC(=O)C4CC4)cc3)n2)n[nH]1 [Tozasertib] + COc1ccc(Cl)c(Nc2nc3ccccc3nc2NS(=O)(=O)c2cccc(NC(=O)C(C)(C)N)c2)c1 [XL147] (first compound 0.006 µM, partner dose 0.8 µM)
cell count (WM115): 93.3% | cell count (WM1716): 90.1% | cell count (WM1745): 85.1% | cell count (WM3526): 84.5% | cell count (WM3619): 95.4% | cell count (WM451Lu): 81.9%

CC[C@]1(O)C[C@H]2CN(CCc3c([nH]c4ccccc34)[C@@](C(=O)OC)(c3cc4c(cc3OC)N(C=O)[C@H]3[C@@](O)(C(=O)OC)[C@H](OC(C)=O)[C@]5(CC)C=CCN6CC[C@]43[C@@H]65)C2)C1 [vincristine] + Cn1cnc2c(F)c(Nc3ccc(Br)cc3Cl)c(C(=O)NOCCO)cc21 [selumetinib] (first compound 0.0001 µM, partner dose 0.015 µM)
cell count (WM115): 48.8% | cell count (WM1716): 54.4% | cell count (WM1745): 86.6% | cell count (WM3526): 74.4% | cell count (WM3619): 47.7% | cell count (WM451Lu): 65.2%

N#CC[C@H](C1CCCC1)n1cc(-c2ncnc3[nH]ccc23)cn1 [ruxolitinib] + Cn1cnc2c(F)c(Nc3ccc(Br)cc3Cl)c(C(=O)NOCCO)cc21 [selumetinib] (first compound 1 µM, partner dose 0.015 µM)
cell count (WM115): 125% | cell count (WM1716): 136% | cell count (WM1745): 93% | cell count (WM3526): 106% | cell count (WM3619): 87.3% | cell count (WM451Lu): 108%

CC[C@]1(O)C[C@H]2CN(CCc3c([nH]c4ccccc34)[C@@](C(=O)OC)(c3cc4c(cc3OC)N(C=O)[C@H]3[C@@](O)(C(=O)OC)[C@H](OC(C)=O)[C@]5(CC)C=CCN6CC[C@]43[C@@H]65)C2)C1 [vincristine] + C#Cc1cccc(Nc2ncnc3cc(OCCOC)c(OCCOC)cc23)c1 [erlotinib] (first compound 0.0001 µM, partner dose 0.8 µM)
cell count (WM115): 42.1% | cell count (WM1716): 42.6% | cell count (WM1745): 59.5% | cell count (WM3526): 61.5% | cell count (WM3619): 41.7% | cell count (WM451Lu): 49.1%

CC[C@]1(O)C[C@H]2CN(CCc3c([nH]c4ccccc34)[C@@](C(=O)OC)(c3cc4c(cc3OC)N(C=O)[C@H]3[C@@](O)(C(=O)OC)[C@H](OC(C)=O)[C@]5(CC)C=CCN6CC[C@]43[C@@H]65)C2)C1 [vincristine] + CS(=O)(=O)CCNCc1ccc(-c2ccc3ncnc(Nc4ccc(OCc5cccc(F)c5)c(Cl)c4)c3c2)o1 [lapatinib] (first compound 0.0001 µM, partner dose 0.8 µM)
cell count (WM115): 41.7% | cell count (WM1716): 45.2% | cell count (WM1745): 82.6% | cell count (WM3526): 61.5% | cell count (WM3619): 46.8% | cell count (WM451Lu): 55.6%

CC[C@]1(O)C[C@H]2CN(CCc3c([nH]c4ccccc34)[C@@](C(=O)OC)(c3cc4c(cc3OC)N(C=O)[C@H]3[C@@](O)(C(=O)OC)[C@H](OC(C)=O)[C@]5(CC)C=CCN6CC[C@]43[C@@H]65)C2)C1 [vincristine] + O=C(O)C(=O)Nc1sc2c(c1C(=O)O)CCNC2 [TCS401] (first compound 0.0001 µM, partner dose 1.66667 µM)
cell count (WM115): 65.2% | cell count (WM1716): 46.7% | cell count (WM1745): 64.6% | cell count (WM3526): 67.5% | cell count (WM3619): 56% | cell count (WM451Lu): 57.5%

Cc1cc(Nc2cc(N3CCN(C)CC3)nc(Sc3ccc(NC(=O)C4CC4)cc3)n2)n[nH]1 [Tozasertib] + O=C(/C=C/c1cccnc1)NCCCCC1CCN(C(=O)c2ccccc2)CC1 [FK866] (first compound 0.006 µM, partner dose 0.01 µM)
cell count (WM115): 84.7% | cell count (WM1716): 76.4% | cell count (WM1745): 88% | cell count (WM3526): 76.1% | cell count (WM3619): 86.5% | cell count (WM451Lu): 106%

Cc1cc(Nc2cc(N3CCN(C)CC3)nc(Sc3ccc(NC(=O)C4CC4)cc3)n2)n[nH]1 [Tozasertib] + CC(=O)O[C@@]12CO[C@@H]1C[C@H](O)[C@@]1(C)C(=O)[C@H](O)C3=C(C)[C@@H](OC(=O)[C@H](O)[C@@H](NC(=O)OC(C)(C)C)c4ccccc4)C[C@@](O)([C@@H](OC(=O)c4ccccc4)[C@H]21)C3(C)C [Docetaxel] (first compound 0.006 µM, partner dose 0.0001 µM)
cell count (WM115): 72.7% | cell count (WM1716): 51.3% | cell count (WM1745): 58.4% | cell count (WM3526): 53.1% | cell count (WM3619): 70.1% | cell count (WM451Lu): 70.5%

N#CC[C@H](C1CCCC1)n1cc(-c2ncnc3[nH]ccc23)cn1 [ruxolitinib] + C[C@@H]1CCN(C(=O)CC#N)C[C@@H]1N(C)c1ncnc2[nH]ccc12 [CP690550] (first compound 1 µM, partner dose 1 µM)
cell count (WM115): 130% | cell count (WM1716): 116% | cell count (WM1745): 98.2% | cell count (WM3526): 112% | cell count (WM3619): 105% | cell count (WM451Lu): 111%

Cc1cc(Nc2cc(N3CCN(C)CC3)nc(Sc3ccc(NC(=O)C4CC4)cc3)n2)n[nH]1 [Tozasertib] + Cn1c(=O)n(-c2ccc(C(C)(C)C#N)cc2)c2c3cc(-c4cnc5ccccc5c4)ccc3ncc21 [NVP-BEZ235] (first compound 0.006 µM, partner dose 0.004 µM)
cell count (WM115): 99% | cell count (WM1716): 89.5% | cell count (WM1745): 94.9% | cell count (WM3526): 87% | cell count (WM3619): 92.3% | cell count (WM451Lu): 113%

CC[C@]1(O)C[C@H]2CN(CCc3c([nH]c4ccccc34)[C@@](C(=O)OC)(c3cc4c(cc3OC)N(C=O)[C@H]3[C@@](O)(C(=O)OC)[C@H](OC(C)=O)[C@]5(CC)C=CCN6CC[C@]43[C@@H]65)C2)C1 [vincristine] + C[C@@H]1CCN(C(=O)CC#N)C[C@@H]1N(C)c1ncnc2[nH]ccc12 [CP690550] (first compound 0.0001 µM, partner dose 1 µM)
cell count (WM115): 63.9% | cell count (WM1716): 51.1% | cell count (WM1745): 87% | cell count (WM3526): 68.6% | cell count (WM3619): 58.1% | cell count (WM451Lu): 56.9%

N#CC[C@H](C1CCCC1)n1cc(-c2ncnc3[nH]ccc23)cn1 [ruxolitinib] + COc1cc2c(Oc3ccc4[nH]c(C)cc4c3F)ncnc2cc1OCCCN1CCCC1 [cediranib] (first compound 1 µM, partner dose 0.4 µM)
cell count (WM115): 117% | cell count (WM1716): 106% | cell count (WM1745): 103% | cell count (WM3526): 140% | cell count (WM3619): 132% | cell count (WM451Lu): 96.6%

N#CC[C@H](C1CCCC1)n1cc(-c2ncnc3[nH]ccc23)cn1 [ruxolitinib] + Oc1nc(-c2ccc(C(F)(F)F)cc2)nc2c1CSCC2 [XAV939] (first compound 1 µM, partner dose 2 µM)
cell count (WM115): 99.2% | cell count (WM1716): 61.4% | cell count (WM1745): 105% | cell count (WM3526): 115% | cell count (WM3619): 137% | cell count (WM451Lu): 83.8%

N#CC[C@H](C1CCCC1)n1cc(-c2ncnc3[nH]ccc23)cn1 [ruxolitinib] + Cc1cc(Nc2cc(N3CCN(C)CC3)nc(/C=C/c3ccccc3)n2)n[nH]1 [ENMD2076] (first compound 1 µM, partner dose 0.04 µM)
cell count (WM115): 108% | cell count (WM1716): 103% | cell count (WM1745): 89.2% | cell count (WM3526): 93.8% | cell count (WM3619): 94.3% | cell count (WM451Lu): 79.8%

N#CC[C@H](C1CCCC1)n1cc(-c2ncnc3[nH]ccc23)cn1 [ruxolitinib] + CCCCCCCCc1ccc(CCC(N)(CO)CO)cc1 [fingolimod] (first compound 1 µM, partner dose 2 µM)
cell count (WM115): 98.9% | cell count (WM1716): 89% | cell count (WM1745): 90% | cell count (WM3526): 83% | cell count (WM3619): 89.1% | cell count (WM451Lu): 96.3%

Cc1cc(Nc2cc(N3CCN(C)CC3)nc(Sc3ccc(NC(=O)C4CC4)cc3)n2)n[nH]1 [Tozasertib] + CCCCCCCCc1ccc(CCC(N)(CO)CO)cc1 [fingolimod] (first compound 0.006 µM, partner dose 2 µM)
cell count (WM115): 98.6% | cell count (WM1716): 86.5% | cell count (WM1745): 90.6% | cell count (WM3526): 90.6% | cell count (WM3619): 86.9% | cell count (WM451Lu): 92.5%

N#CC[C@H](C1CCCC1)n1cc(-c2ncnc3[nH]ccc23)cn1 [ruxolitinib] + C=C(c1ccc(C(=O)O)cc1)c1cc2c(cc1C)C(C)(C)CCC2(C)C [Bexarotene] (first compound 1 µM, partner dose 2 µM)
cell count (WM115): 117% | cell count (WM1716): 96.3% | cell count (WM1745): 99.7% | cell count (WM3526): 99.3% | cell count (WM3619): 91.4% | cell count (WM451Lu): 67.5%

N#CC[C@H](C1CCCC1)n1cc(-c2ncnc3[nH]ccc23)cn1 [ruxolitinib] + O=C1NC(=O)/C(=C/c2ccc(-c3ccc(F)cc3O)o2)S1 [AS252424] (first compound 1 µM, partner dose 1 µM)
cell count (WM115): 114% | cell count (WM1716): 104% | cell count (WM1745): 96.7% | cell count (WM3526): 113% | cell count (WM3619): 98.8% | cell count (WM451Lu): 111%

Cc1cc(Nc2cc(N3CCN(C)CC3)nc(Sc3ccc(NC(=O)C4CC4)cc3)n2)n[nH]1 [Tozasertib] + CO[C@@H]1[C@H](N(C)C(=O)c2ccccc2)C[C@H]2O[C@]1(C)n1c3ccccc3c3c4c(c5c6ccccc6n2c5c31)C(=O)NC4 [Midostaurin] (first compound 0.006 µM, partner dose 0.08 µM)
cell count (WM115): 75.4% | cell count (WM1716): 60.3% | cell count (WM1745): 72.8% | cell count (WM3526): 101% | cell count (WM3619): 85.7% | cell count (WM451Lu): 96.3%

N#CC[C@H](C1CCCC1)n1cc(-c2ncnc3[nH]ccc23)cn1 [ruxolitinib] + OCc1c[nH]c2ccccc12 [Indole-3-carbinol] (first compound 1 µM, partner dose 0.8 µM)
cell count (WM115): 97.8% | cell count (WM1716): 97% | cell count (WM1745): 89.3% | cell count (WM3526): 95.7% | cell count (WM3619): 80.3% | cell count (WM451Lu): 94.3%

CC[C@]1(O)C[C@H]2CN(CCc3c([nH]c4ccccc34)[C@@](C(=O)OC)(c3cc4c(cc3OC)N(C=O)[C@H]3[C@@](O)(C(=O)OC)[C@H](OC(C)=O)[C@]5(CC)C=CCN6CC[C@]43[C@@H]65)C2)C1 [vincristine] + CC1(C)NC(=O)N(c2ccc([N+](=O)[O-])c(C(F)(F)F)c2)C1=O [nilutamide] (first compound 0.0001 µM, partner dose 1 µM)
cell count (WM115): 42.1% | cell count (WM1716): 44.4% | cell count (WM1745): 103% | cell count (WM3526): 56.4% | cell count (WM3619): 68.3% | cell count (WM451Lu): 56.1%

Cc1cc(Nc2cc(N3CCN(C)CC3)nc(Sc3ccc(NC(=O)C4CC4)cc3)n2)n[nH]1 [Tozasertib] + N#Cc1c(O)c2c(-c3ccc(-c4ccccc4O)cc3)csc2[nH]c1=O [A769662] (first compound 0.006 µM, partner dose 2 µM)
cell count (WM115): 100% | cell count (WM1716): 79.7% | cell count (WM1745): 74.4% | cell count (WM3526): 96.2% | cell count (WM3619): 90.6% | cell count (WM451Lu): 106%
